A word on the IC50: it is the concentration that gives 50% inhibition. A low value points to higher potency.

Where only a bound is given, the exact number is not on record here.

Test [1] has as its target T1, Tyrosine-protein kinase JAK2 (Homo sapiens, UniProt O60674). Format: cell-based, TF-1.
The target of test [2] is T1, Tyrosine-protein kinase JAK2.

T1 sequence (O60674 whole entry): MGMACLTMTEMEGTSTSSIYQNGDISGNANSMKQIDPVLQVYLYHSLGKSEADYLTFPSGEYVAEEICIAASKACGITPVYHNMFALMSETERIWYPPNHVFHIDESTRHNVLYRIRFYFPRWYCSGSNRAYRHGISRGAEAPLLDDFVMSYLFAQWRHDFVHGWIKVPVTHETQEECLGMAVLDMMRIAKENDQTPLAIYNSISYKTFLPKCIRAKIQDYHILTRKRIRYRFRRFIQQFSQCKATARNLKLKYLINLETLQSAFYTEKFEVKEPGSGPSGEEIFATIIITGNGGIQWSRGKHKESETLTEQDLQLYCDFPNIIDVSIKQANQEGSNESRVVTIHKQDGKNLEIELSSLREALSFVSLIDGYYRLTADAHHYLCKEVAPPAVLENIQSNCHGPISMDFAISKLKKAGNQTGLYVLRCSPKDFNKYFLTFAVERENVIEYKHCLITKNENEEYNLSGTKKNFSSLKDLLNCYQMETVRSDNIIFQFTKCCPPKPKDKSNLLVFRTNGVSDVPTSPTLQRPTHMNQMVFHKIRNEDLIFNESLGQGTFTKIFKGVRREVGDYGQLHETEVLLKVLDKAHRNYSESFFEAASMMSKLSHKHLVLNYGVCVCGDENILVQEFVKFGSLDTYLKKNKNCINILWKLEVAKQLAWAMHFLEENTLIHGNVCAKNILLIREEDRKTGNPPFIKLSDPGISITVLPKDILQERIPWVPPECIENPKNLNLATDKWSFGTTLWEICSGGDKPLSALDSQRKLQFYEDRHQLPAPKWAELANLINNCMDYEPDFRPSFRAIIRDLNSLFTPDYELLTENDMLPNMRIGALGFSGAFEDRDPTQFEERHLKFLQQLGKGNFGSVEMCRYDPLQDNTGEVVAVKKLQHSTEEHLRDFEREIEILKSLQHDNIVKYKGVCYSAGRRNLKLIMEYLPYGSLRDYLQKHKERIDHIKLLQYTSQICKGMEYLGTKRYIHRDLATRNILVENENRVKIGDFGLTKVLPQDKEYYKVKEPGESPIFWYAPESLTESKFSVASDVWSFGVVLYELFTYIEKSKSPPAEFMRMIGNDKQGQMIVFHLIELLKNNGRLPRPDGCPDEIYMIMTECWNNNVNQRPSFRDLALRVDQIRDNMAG

Take `C[C@H](NC(=O)OC(C)(C)C)C(=O)Nc1ccc(-c2ncnc3c2cc(C(N)=O)n3C)cc1`: the values for the IC50 in test [1] and in test [2] were 4.8 µM and 0.051 µM, respectively.

Turning to `CC(=O)Nc1ccc(-c2ncnc3c2cc(C(=O)NCCN2CCCC2)n3C)cc1`, the results for the concentration for half-maximal inhibition (IC50) in test [1] and in test [2] were 4.3 µM and 0.155 µM, respectively. The corresponding values for `CCC(=O)Nc1ccc(-c2ncnc3c2cc(C(N)=O)n3C)cc1` are 15.8 µM and 0.097 µM. For `Cn1c(C(=O)OCc2ccccc2)cc2c(-c3ccc(NC(=O)[C@@H]4CCCN4C(=O)OC(C)(C)C)cc3)ncnc21`, in that order: greater than 20 µM and greater than 1 µM. Turning to `CC(=O)Nc1ccc(-c2ncnc3c2cc(C(N)=O)n3C)cc1`, the IC50 is greater than 20 µM in test [1] and 0.184 µM in test [2]. Consider `Cn1c(C(=O)NCCN2CCCC2)cc2c(-c3ccc(NC(=O)[C@@H]4CCCN4C(=O)OC(C)(C)C)cc3)ncnc21`, for which the IC50 in test [1] amounted to 0.52 µM; in test [2] it was 0.009 µM. The corresponding values for `C[C@H](NC(=O)OC(C)(C)C)C(=O)Nc1ccc(-c2ncnc3c2cc(C(=O)NCCCN2CCOCC2)n3C)cc1` are 9.3 µM and 0.017 µM.

In the case of `Cn1c(C(=O)NCCN2CCCC2)cc2c(-c3ccc(NC(=O)c4ccc(C#N)cc4)cc3)ncnc21`, the concentration for half-maximal inhibition (IC50) in test [1] came to 17.5 µM; in test [2], 0.041 µM. Turning to `Cn1c(C(=O)OCc2ccccc2)cc2c(-c3ccc(NC(=O)C(C)(C)C)cc3)ncnc21`, in test [2], the IC50 came out at 0.786 µM. Molecule `Cn1c(C(=O)OCc2ccccc2)cc2c(-c3ccc(NC(=O)c4ccc(C#N)cc4)cc3)ncnc21` returned an IC50 in test [2] greater than 1 µM. As for `Cn1c(C(=O)NCCCN2CCOCC2)cc2c(-c3ccc(NC(=O)C(C)(C)C)cc3)ncnc21`, the IC50 in test [1] turned out to be 0.14 µM; in test [2], 0.006 µM.

Take `Cn1c(C(=O)NCCCN2CCOCC2)cc2c(-c3ccc(NC(=O)[C@@H]4CCCN4C(=O)OC(C)(C)C)cc3)ncnc21`: the IC50 in test [1] came to 0.27 µM; in test [2] it was 0.01 µM. On to `CC(=O)Nc1ccc(-c2ncnc3c2cc(C(=O)NCCCN2CCOCC2)n3C)cc1`, for which the half-inhibitory concentration (IC50) in test [1] was 9.6 µM; in test [2] it was 0.036 µM.

Molecule `CCC(=O)Nc1ccc(-c2ncnc3c2cc(C(=O)OCc2ccccc2)n3C)cc1` yielded an IC50 in test [2] of 0.531 µM.

As to `Cn1c(C(N)=O)cc2c(-c3ccc(NC(=O)c4ccccc4)cc3)ncnc21`, the IC50 in test [1] was greater than 20 µM; in test [2], 0.908 µM. `Cn1c(C(=O)NCCN2CCCC2)cc2c(-c3ccc(NC(=O)c4ccccc4)cc3)ncnc21` came in with an IC50 in test [2] of 0.078 µM. That is a double-digit nanomolar value. In the case of `Cn1c(C(N)=O)cc2c(-c3ccc(NC(=O)[C@@H]4CCCN4C(=O)OC(C)(C)C)cc3)ncnc21`, the IC50 was determined as 1.2 µM in test [1] and 0.033 µM in test [2]. For `CC(=O)Nc1ccc(-c2ncnc3c2cc(C(=O)OCc2ccccc2)n3C)cc1`, in test [2], the IC50 worked out at 0.732 µM. Take `CCC(=O)Nc1ccc(-c2ncnc3c2cc(C(=O)NCCCN2CCOCC2)n3C)cc1`: the IC50 was greater than 20 µM in test [1] and 0.023 µM in test [2].

Take `Cn1c(C(=O)NCCCN2CCOCC2)cc2c(-c3ccc(NC(=O)c4ccc(C#N)cc4)cc3)ncnc21`: the IC50 in test [1] was greater than 20 µM; in test [2], 0.081 µM. The corresponding values for `Cn1c(C(=O)NCCN2CCCC2)cc2c(-c3ccc(NC(=O)C(C)(C)C)cc3)ncnc21` are 0.3 µM and 0.008 µM. `Cn1c(C(=O)OCc2ccccc2)cc2c(-c3ccc(NC(=O)c4ccccc4)cc3)ncnc21` returned a 50% inhibitory concentration (IC50) in test [2] greater than 1 µM. Take `CCC(=O)Nc1ccc(-c2ncnc3c2cc(C(=O)NCCN2CCCC2)n3C)cc1`: the half-inhibitory concentration (IC50) in test [1] amounted to 2.9 µM; in test [2] it was 0.067 µM.

Take `Cn1c(C(N)=O)cc2c(-c3ccc(NC(=O)C(C)(C)C)cc3)ncnc21`: the half-maximal inhibitory concentration (IC50) in test [1] is 0.91 µM; in test [2], 0.02 µM. The corresponding values for `C[C@H](NC(=O)OC(C)(C)C)C(=O)Nc1ccc(-c2ncnc3c2cc(C(=O)OCc2ccccc2)n3C)cc1` are greater than 20 µM and 0.475 µM.

The molecule `Cn1c(C(N)=O)cc2c(-c3ccc(NC(=O)c4ccc(C#N)cc4)cc3)ncnc21` yielded an IC50 in test [2] greater than 1 µM.

With `C[C@H](NC(=O)OC(C)(C)C)C(=O)Nc1ccc(-c2ncnc3c2cc(C(=O)NCCN2CCCC2)n3C)cc1`, the concentration for half-maximal inhibition (IC50) in test [1] was determined as 1.4 µM; in test [2] it was 0.021 µM. For the molecule `Cn1c(C(=O)NCCCN2CCOCC2)cc2c(-c3ccc(NC(=O)c4ccccc4)cc3)ncnc21`, in test [2], the half-maximal inhibitory concentration (IC50) turned out to be 0.094 µM. In other words, the double-digit nanomolar range.

The values above are taken from ChEMBL document CHEMBL3797127, “Design, synthesis and evaluation of pyrrolo[2,3-d]pyrimidine-phenylamide hybrids as potent Janus kinase 2 inhibitors” (Bioorg Med Chem Lett, 2016).
